# Assay results reported in publication PMC10872421 (Journal of molecular and cellular cardiology, 2023).
# Molecular target: T1, FMAL-labeled F-actin (rabbit, UniProt P68135, fluorescein-5-maleimide (FMAL) on cys374 (10% of the monomers labelled))
# Experiment: co-sedimentation
row,Binder,fold increase of EC50 upon phosphorylation
1,"C0-C2^cys330, PKA-phosphorylated (domain or fragment, tetramethylrhodamine-5-maleimide (TMR) on cys330; phosphorylated by PKA in the M-domain (serines S275, S284, S304, S311)) not shown",1.1 fold

# Molecular target: T1, FMAL-labeled F-actin
# Experiment: FRET or BRET
row,Binder,fold change of EC50 upon phosphorylation
1,"C0-C2^cys330, PKA-phosphorylated (domain or fragment, tetramethylrhodamine-5-maleimide (TMR) on cys330; phosphorylated by PKA in the M-domain (serines S275, S284, S304, S311)) not shown",2.8 fold

# Molecular target: T1, FMAL-labeled F-actin
# Experiment: FRET or BRET
# Remark: another data set of the same source
row,Binder,FLT-FRET at 2.5 μM relative to WT
1,"C0-C2^(cys85, L352P) (domain or fragment, tetramethylrhodamine-5-maleimide (TMR) on cys85) not shown",1.36 relative to WT
2,"C0-C2^(cys330, T59A) (domain or fragment, tetramethylrhodamine-5-maleimide (TMR) on cys330) not shown",1.21 relative to WT
3,"C0-C2^(cys330, T59A), PKA-phosphorylated (domain or fragment, tetramethylrhodamine-5-maleimide (TMR) on cys330; phosphorylated by PKA in the M-domain (serines S275, S284, S304, S311)) not shown",0.98 relative to WT
4,"C0-C2^(cys85, L352P), PKA-phosphorylated (domain or fragment, tetramethylrhodamine-5-maleimide (TMR) on cys85; phosphorylated by PKA in the M-domain (serines S275, S284, S304, S311)) not shown",2.27 relative to WT
5,"C0-C2^(cys249, L352P) (domain or fragment, tetramethylrhodamine-5-maleimide (TMR) on cys249) not shown",1.21 relative to WT
6,"C0-C2^(cys85, R282W) (domain or fragment, tetramethylrhodamine-5-maleimide (TMR) on cys85) not shown",1.03 relative to WT
7,"C0-C2^(cys330, L349R), PKA-phosphorylated (domain or fragment, tetramethylrhodamine-5-maleimide (TMR) on cys330; phosphorylated by PKA in the M-domain (serines S275, S284, S304, S311)) not shown",2.66 relative to WT
8,"C0-C2^(cys249, L352P), PKA-phosphorylated (domain or fragment, tetramethylrhodamine-5-maleimide (TMR) on cys249; phosphorylated by PKA in the M-domain (serines S275, S284, S304, S311)) not shown",1.74 relative to WT
9,"C0-C2^(cys330, L352P), PKA-phosphorylated (domain or fragment, tetramethylrhodamine-5-maleimide (TMR) on cys330; phosphorylated by PKA in the M-domain (serines S275, S284, S304, S311)) not shown",2.6 relative to WT
10,"C0-C2^(cys85, T59A) (domain or fragment, tetramethylrhodamine-5-maleimide (TMR) on cys85) not shown",0.97 relative to WT
11,"C0-C2^(cys330, L352P) (domain or fragment, tetramethylrhodamine-5-maleimide (TMR) on cys330) not shown",1.31 relative to WT
